For five substances, binding results are on record in publication PMC3526275.

By UniProt entry, the sequences of proteins in these tests, tags left out. Where a name states a change or a piece, a line headed by the entry shows the natural chain unless it says otherwise. Residues count along the entry.
UniProt Q86YI8: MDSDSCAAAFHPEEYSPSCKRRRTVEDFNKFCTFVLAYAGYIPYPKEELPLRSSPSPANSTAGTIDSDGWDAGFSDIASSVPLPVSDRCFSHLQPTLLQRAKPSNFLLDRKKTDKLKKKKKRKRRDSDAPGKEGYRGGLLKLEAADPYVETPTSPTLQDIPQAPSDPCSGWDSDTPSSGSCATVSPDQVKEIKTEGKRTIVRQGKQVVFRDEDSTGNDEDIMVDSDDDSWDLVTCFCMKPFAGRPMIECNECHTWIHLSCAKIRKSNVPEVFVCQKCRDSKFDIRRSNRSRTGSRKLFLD
GST-SPOC1 1-100: residues 1-100 of Q86YI8
UniProt Q5DW34: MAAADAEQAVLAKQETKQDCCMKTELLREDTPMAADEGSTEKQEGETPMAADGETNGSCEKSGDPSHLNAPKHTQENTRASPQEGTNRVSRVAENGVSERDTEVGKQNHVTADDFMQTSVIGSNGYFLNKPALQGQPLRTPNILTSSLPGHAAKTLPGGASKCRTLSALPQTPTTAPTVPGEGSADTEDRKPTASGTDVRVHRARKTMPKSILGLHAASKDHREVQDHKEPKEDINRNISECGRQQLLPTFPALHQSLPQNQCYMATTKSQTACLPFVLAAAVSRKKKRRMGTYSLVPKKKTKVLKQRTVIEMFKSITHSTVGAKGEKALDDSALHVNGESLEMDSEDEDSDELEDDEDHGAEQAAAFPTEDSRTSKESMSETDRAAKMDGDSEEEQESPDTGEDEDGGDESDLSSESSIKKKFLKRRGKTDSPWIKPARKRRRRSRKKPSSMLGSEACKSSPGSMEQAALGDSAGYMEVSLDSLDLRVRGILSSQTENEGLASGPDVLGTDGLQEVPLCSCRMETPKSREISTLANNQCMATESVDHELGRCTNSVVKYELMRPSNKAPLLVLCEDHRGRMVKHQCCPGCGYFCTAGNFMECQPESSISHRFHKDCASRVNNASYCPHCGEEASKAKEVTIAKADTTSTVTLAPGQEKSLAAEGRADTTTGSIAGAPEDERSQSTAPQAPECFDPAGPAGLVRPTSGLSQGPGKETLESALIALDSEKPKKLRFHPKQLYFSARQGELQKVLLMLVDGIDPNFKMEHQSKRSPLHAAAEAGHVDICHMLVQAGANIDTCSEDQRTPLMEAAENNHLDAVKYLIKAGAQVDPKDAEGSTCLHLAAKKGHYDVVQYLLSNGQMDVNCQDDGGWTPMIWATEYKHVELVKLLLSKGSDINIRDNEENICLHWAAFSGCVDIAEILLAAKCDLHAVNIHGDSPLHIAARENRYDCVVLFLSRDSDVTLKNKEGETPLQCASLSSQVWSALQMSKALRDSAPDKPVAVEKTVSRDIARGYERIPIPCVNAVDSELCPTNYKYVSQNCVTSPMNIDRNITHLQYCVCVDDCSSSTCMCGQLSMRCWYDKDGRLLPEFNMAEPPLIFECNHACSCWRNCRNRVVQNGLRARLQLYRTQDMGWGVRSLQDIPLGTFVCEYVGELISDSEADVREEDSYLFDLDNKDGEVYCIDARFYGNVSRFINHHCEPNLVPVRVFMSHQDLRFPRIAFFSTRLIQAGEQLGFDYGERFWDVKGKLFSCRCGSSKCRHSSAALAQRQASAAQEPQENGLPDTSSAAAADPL
UniProt Q96KQ7: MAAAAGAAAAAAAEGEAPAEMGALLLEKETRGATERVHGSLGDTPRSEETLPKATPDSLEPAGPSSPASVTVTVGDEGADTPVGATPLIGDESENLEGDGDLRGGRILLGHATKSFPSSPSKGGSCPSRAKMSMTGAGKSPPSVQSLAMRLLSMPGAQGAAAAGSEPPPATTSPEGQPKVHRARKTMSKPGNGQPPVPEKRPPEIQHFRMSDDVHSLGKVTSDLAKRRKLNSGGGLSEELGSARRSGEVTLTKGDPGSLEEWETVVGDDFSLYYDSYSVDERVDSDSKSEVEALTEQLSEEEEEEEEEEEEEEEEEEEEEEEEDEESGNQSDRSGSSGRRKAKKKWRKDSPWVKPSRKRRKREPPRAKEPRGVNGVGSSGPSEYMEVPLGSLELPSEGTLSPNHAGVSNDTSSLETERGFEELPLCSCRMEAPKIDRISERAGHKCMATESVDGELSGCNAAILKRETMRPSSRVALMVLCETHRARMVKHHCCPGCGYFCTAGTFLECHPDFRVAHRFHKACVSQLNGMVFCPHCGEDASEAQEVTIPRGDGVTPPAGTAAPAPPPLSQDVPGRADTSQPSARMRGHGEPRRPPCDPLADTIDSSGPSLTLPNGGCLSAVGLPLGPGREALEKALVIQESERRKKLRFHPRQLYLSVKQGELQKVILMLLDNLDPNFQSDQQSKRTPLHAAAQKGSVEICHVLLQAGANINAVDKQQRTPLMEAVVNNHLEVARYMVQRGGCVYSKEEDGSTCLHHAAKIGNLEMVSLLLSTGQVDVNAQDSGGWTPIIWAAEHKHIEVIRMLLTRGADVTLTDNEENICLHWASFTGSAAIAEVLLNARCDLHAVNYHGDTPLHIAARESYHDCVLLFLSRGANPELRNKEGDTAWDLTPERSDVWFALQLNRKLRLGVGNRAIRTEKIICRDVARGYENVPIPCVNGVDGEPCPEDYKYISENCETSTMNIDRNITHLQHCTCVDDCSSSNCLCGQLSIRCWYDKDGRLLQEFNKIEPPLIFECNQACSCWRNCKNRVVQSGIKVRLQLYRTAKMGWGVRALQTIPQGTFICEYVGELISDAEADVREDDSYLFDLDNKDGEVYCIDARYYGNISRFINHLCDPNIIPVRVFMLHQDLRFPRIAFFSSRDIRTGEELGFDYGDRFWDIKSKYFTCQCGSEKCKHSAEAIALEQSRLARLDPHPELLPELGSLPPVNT
UniProt Q8K2W6: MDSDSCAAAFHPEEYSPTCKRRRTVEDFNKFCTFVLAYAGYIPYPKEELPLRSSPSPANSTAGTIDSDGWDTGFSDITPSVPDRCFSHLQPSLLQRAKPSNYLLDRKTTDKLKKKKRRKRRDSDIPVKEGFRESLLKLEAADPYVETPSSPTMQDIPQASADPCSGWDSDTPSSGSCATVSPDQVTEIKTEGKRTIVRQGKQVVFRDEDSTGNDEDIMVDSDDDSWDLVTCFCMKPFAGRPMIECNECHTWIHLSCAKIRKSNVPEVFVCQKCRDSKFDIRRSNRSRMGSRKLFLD

These are yes or no findings as the source states them, for the method shown. For some of these results: In cells and extracts the contact can be indirect. Some entries that bind do so weakly or less than the wild type.

Test [1] deals with SPOC1 (endogenous, HeLa) (human (endogenous in HeLa)) (UniProt Q86YI8). Briefly: co-IP; immunoprecipitation of endogenous SPOC1 from HeLa nuclear extracts with anti-SPOC1 or control antibody; immunoblot; extracts pretreated with DNase with or without RNase or Etbr.
The target in another test is GST-SPOC1 1-100 (human) (UniProt Q86YI8). Briefly: pull-down; recombinant GST-fusion proteins on glutathione beads incubated with U2OS chromatin extracts (benzonase-treated, 150 mM NaCl, 25 mM HEPES, 0.1% NP-40) for 1–2 h at 4°C; washed three times with PBS; immunoblot for KAP-1; only the target purified. Background: A western blot detects proteins with antibodies after separation by electrophoresis.

Test [2] deals with GST-SPOC1 full-length (human) (UniProt Q86YI8). Described as above.
Test [3] addresses ProtA-SPOC1 (amino acids 1–300) (human) (UniProt Q86YI8). Briefly: LUMIER (luciferase co-precipitation); protein A and renilla luciferase fusion proteins coexpressed in HEK293 cells; protein A fusions captured on IgG-coated magnetic beads; copurified luciferase activity as Z-score, Z-score ≥ 0.5 indicates an interaction.
Test [4] concerns the target T1, ProtA-KAP-1 (amino acids 1–400) (human) (UniProt Q13263).
T1 sequence: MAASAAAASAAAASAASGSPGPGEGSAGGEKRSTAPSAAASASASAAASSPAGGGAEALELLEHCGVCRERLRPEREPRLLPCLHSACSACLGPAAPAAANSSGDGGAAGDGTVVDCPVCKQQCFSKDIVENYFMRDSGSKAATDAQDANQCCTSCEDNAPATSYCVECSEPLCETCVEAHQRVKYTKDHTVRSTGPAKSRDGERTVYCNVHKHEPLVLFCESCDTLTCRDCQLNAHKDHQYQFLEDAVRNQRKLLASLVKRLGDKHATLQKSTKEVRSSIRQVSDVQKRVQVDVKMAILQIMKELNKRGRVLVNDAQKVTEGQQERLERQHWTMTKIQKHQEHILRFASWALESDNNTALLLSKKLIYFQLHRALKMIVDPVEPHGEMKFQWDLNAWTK
The test is described as above.

Test [5] deals with T2, SUV39H1 (endogenous, C2C12) (mouse (endogenous in C2C12)) (UniProt O54864).
T2 sequence: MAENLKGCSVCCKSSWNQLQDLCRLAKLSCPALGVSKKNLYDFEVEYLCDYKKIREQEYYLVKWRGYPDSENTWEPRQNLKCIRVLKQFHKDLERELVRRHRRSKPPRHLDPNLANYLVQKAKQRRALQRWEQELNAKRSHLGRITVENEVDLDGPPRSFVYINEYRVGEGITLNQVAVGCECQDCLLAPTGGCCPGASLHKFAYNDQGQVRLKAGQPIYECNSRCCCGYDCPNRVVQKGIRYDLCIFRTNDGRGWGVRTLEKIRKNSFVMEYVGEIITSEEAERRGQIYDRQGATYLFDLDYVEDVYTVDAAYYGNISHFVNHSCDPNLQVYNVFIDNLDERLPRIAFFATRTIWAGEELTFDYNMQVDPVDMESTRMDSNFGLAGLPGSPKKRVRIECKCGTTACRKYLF
Briefly: co-IP; immunoprecipitation of endogenous GLP or SUV39H1 from C2C12 cell extracts, control antibody alongside; immunoblot for GLP, SUV39H1, SETDB1 and SPOC1.

For test [6], the target named is GLP (endogenous, C2C12) (mouse (endogenous in C2C12)) (UniProt Q5DW34). The description is as above.

Consider “G9A (endogenous, HeLa) (from UniProt Q96KQ7 1-1210) (enzyme)”, for which the binding entry in test [1] is listed as “binds”.
Turning to “KAP-1 (endogenous, U2OS) (from UniProt Q13263 1-835)”, the binding result in the test with GST-SPOC1 1-100 (human) is “no binding”; in test [2] it was “binds”.
With “Luc-KAP-1 (amino acids 1–835) (from UniProt Q13263 1-835)”, the binding entry in test [3] is “binds”.
As to “Luc-SPOC1 (amino acids 150–300) (from UniProt Q86YI8 150-300) (domain or fragment)”, the binding result in test [4] is reported as “binds”.
As to “SPOC1 (endogenous, C2C12) (from UniProt Q8K2W6 1-296)”, the binding result in test [5] and in test [6] was “binds” each time.
